# Measurements from PubChem BioAssay (NCATS).
# Several values for one entry are separate records, joined by “and”; a condition that tells them apart may be missing. Identical values can stand only once. Inconclusive results, whose numbers are uncertain, are shown with a selection of clear calls. For part of these data: Where the call is inconclusive, the potency comes from a doubtful curve fit. For part of these data: A note “side channel” means that the fit belongs to a control or component signal, not to the main read-out. Activity calls are given as the source filed them. Unless noted, calls follow the shape of the dose curve; as a rule, active = well fitted curve in the direction sought with a large enough effect; inconclusive = small, poorly fitted or top-dose-only effect, or another doubt; inactive = no such curve, though single readings can be large; an effect the other way counts as inactive or inconclusive.
# What was measured:
# [1] = molecular target: Cytochrome P450 3A4 (Homo sapiens) (UniProt P08684); assay: qHTS Assay for Activators of Cytochrome P450 3A4 (AID 885); also: nearly all actives have a fitted effect of over 65% in size; also: potency is read from the fitted curve at half-maximal effect
# Method in brief: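 Signal was normalized against complete inhibition by 57 uM ketoconazole. The reaction used 20nM CYP3A4 with 25uM Luciferin-PPXE, 10-min compound preincubation and a 60-min NADPH-supported step at RT.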
# [2] = qHTS Assay for Identification of Small Molecule Antagonists for NFkB Signaling Pathway (AID 895; active = well fitted inhibition curve with a large enough effect in the signal ratio, with a control signal flat, not every such curve was filed as active; inconclusive = small, poorly fitted or top-dose-only effect, or effect the other way, or a change in a side signal; the % refers to the signal ratio; also: potency is read from the fitted curve at half-maximal effect; as to activity change, negative = inhibition: % is scaled to controls: 0 for no effect and ±100 for the full control effect); conditions: NFkB beta-lactamase reporter cells, FRET ratio 460/530; Potency: stimulated with 10 pM TNF alpha unless noted; activity change, negative = inhibition: at 38.3 µM (top of the series) unless noted
# Method in brief: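 ME-180 NFkB-bla cells (beta-lactamase under NFkB response element), plated overnight, treated with compound then 10 pM TNF alpha (about EC50) for 5 hrs at 37 C. LiveBLAzer FRET read at 460/530 nm emission, 405 nm excitation.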
# [3] = molecular target: Cytochrome P450 2C19 (Homo sapiens) (UniProt P33261); assay: qHTS Assay for Inhibitors and Substrates of Cytochrome P450 2C19 (AID 899); also: potency is read from the fitted curve at half-maximal effect; nearly all actives have a fitted effect of over 60% in size
# Method in brief: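 5 nM human CYP2C19 with 10uM Luciferin-H EGE (at KM) in 50mM KPO4, compound preincubated 10 min at 37C, then NADPH regeneration for 60 min at 37C. Luciferin read by luminescence after detection reagent; normalized to 57uM ketoconazole as full inhibition.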
# [4] = qHTS Assay for Identification of Small Molecule Agonists for Thrombopoietin (TPO) Signaling Pathway (AID 917); conditions: TPO signaling pathway reporter cells, agonist qHTS; Potency: stimulated with TPO at its EC50 unless noted; activity, positive = activation: at 38.5 µM (top of the series) unless noted; also: potency is read from the fitted curve at half-maximal effect; as to activity, positive = activation: % is scaled to controls: 0 for no effect and ±100 for the full control effect
# Method in brief: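 Murine Ba/F3 cells stably expressing human TPO receptor and a Glycoprotein IIb promoter–luciferase reporter were IL-3-starved overnight, then treated with compounds plus TPO (26 pM final, its EC50) for 24 hrs at 37 C; luminescence was read.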
# [5] = qHTS Assay for Identification of Small Molecule Antagonists for Thrombopoietin (TPO) Signaling Pathway (AID 918); conditions: TPO-dependent cell signaling reporter, antagonist mode; activity change, negative = inhibition: at 38.5 µM (top of the series); also: nearly all actives have a fitted effect of over 60% in size; also: potency is read from the fitted curve at half-maximal effect
# Method in brief: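 Murine Ba/F3 cells expressing human TPO receptor and a Glycoprotein IIb promoter-luciferase reporter, IL-3-starved overnight, treated with compound plus TPO at EC50 (26 pM final). After 24 h at 37 C, luminescence read to detect inhibitors.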
# [6] = molecular target: Muscarinic acetylcholine receptor M1 (Rattus norvegicus) (UniProt P08482); assay: qHTS Assay for Antagonists of Acetylcholine Muscarinic M1 Receptor: Kinetic Measurement of Intracellular Calcium Response (AID 943); also: nearly all actives have a fitted effect of over 75% in size; also: potency is read from the fitted curve at half-maximal effect
# Method in brief: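 CHO cells expressing rat M1 receptor, Fluo-4 loaded, preincubated 10 min with compound, then stimulated with EC80 carbachol (100 nM final). Kinetic calcium fluorescence over 4 min; response taken as peak over basal signal.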
# [7] = molecular target: Muscarinic acetylcholine receptor M1 (Rattus norvegicus) (UniProt P08482); assay: qHTS Assay for Antagonists of Acetylcholine Muscarinic M1 Receptor: Measurement of IP-One Response (AID 944); also: nearly all actives have a fitted effect of over 75% in size; also: potency is read from the fitted curve at half-maximal effect
# [8] = molecular target: Cytochrome P450 3A4 (Homo sapiens) (UniProt P08684); assay: qHTS Assay for Inhibitors and Substrates of Cytochrome P450 3A4 (AID 884); also: nearly all actives have a fitted effect of over 50% in size; also: potency is read from the fitted curve at half-maximal effect; as to activity change, negative = inhibition: % is scaled to controls: 0 for no effect and ±100 for the full control effect
# Method in brief: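 20 nM human CYP3A4 with 25 uM Luciferin-PPXE (at KM) in 200 mM KPO4, preincubated 10 min with compound; NADPH regeneration started a 60 min RT reaction. Luciferin detected by luminescence, normalized to 57 uM ketoconazole as full inhibition.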
# [9] = molecular target: Cytochrome P450 2D6 (Homo sapiens) (UniProt P10635); assay: qHTS Assay for Inhibitors and Substrates of Cytochrome P450 2D6 (AID 891);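 also: luciferin methyl ether substrate demethylated by CYP2D6 with NADPH regeneration; nearly all actives have a fitted effect of over 60% in size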; also: potency is read from the fitted curve at half-maximal effect; as to activity change, negative = inhibition: top concentration of the series differs between compounds; % is scaled to controls: 0 for no effect and ±100 for the full control effect
# Method in brief: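 Human CYP2D6 (5 nM) with 30 uM Luciferin-ME EGE (at Km) in 100 mM KPO4, compound preincubated 10 min, then NADPH regeneration system for 60 min at room temperature. Luciferin read by luminescence; normalized to 1.43 uM quinidine.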
# [10] = qHTS Assay for Identification of Small Molecule Agonists for Hypoxia Response Element Signaling Pathway (AID 914; active = well fitted activation curve with a large enough effect in the signal ratio, with a control signal flat, not every such curve was filed as active; inconclusive = small, poorly fitted or top-dose-only effect, or effect the other way, or a change in a side signal; the % refers to the signal ratio; also: potency is read from the fitted curve at half-maximal effect); conditions: ME-180 HRE-bla reporter, beta-lactamase ratio, CoCl2, 17 h; activation: hits give high values
# Method in brief: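 HRE-bla ME-180 cells, overnight plating in Opti-MEM with 0.5% dialyzed FBS; cpd titration + EC50 CoCl2, 17 h, 37 degrees Celsius; CCF4 2.5 h RT; 460/530 nm ratio; AC50.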
# [11] = Confirmation and Secondary Assay for Modulators of Hemoglobin Beta Chain Splicing at IVS2 654 locus (AID 910);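 also: HeLa cells stably carrying EGFP split by mutant beta-globin IVS2-654 intron; potency is read from the fitted curve at half-maximal effect; potency of activators that raise GFP signal by restoring correct splicing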
# Method in brief: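 HeLa cells stably expressing EGFP interrupted by β-globin IVS2-654 intron, seeded overnight in Opti-MEM/2% FCS, then treated 2 days at 37 °C. Restored splicing read as total peak GFP intensity per well by laser scanning cytometry (488 nm excitation, 500–520 nm emission); 500 nM antisense PNA as control.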
# [12] = qHTS Assay for Identification of Small Molecule Agonists for NFkB Signaling Pathway (AID 928; calls by dose curve); conditions: NFkB beta-lactamase reporter cells, blue/green ratio
# Method in brief: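 ME-180 NFkB-bla cells carry a beta-lactamase reporter under an NFkB response element. Compound plus 10 pM TNF alpha (final) was applied for 5 hrs at 37 C. After 2 hrs with LiveBLAzer substrate, 460/530 nm emission was read at 405 nm excitation.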
# [13] = molecular target: Pyruvate kinase (Leishmania mexicana) (UniProt Q27686); assay: qHTS Validation Assay for Inhibitors of Leishmania Mexicana Pyruvate Kinase (AID 945);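 also: 0% = DMSO only neutral control wells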; conditions: purified L. mexicana pyruvate kinase, enzyme activity, E451W mutant enzyme; at 57.5 µM (top of the series)
# Method in brief: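 Luminescent ATP detection (PKLight) after a 1 h room-temperature reaction of 0.2 nM LmPYK E451W mutant with 0.5 mM PEP and 0.1 mM ADP at pH 7.2. Activity is normalized to DMSO-only control wells.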
# [14] = MultiTox-Fluor Cytotoxicity Assay - LYMP1-001 - Dead Cells (AID 946); also: potency is read from the fitted curve at half-maximal effect
# Method in brief: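 Cytotoxicity as increased dead-cell protease fluorescence (bis-AAF-R110, 485/520 nm), read 60 min after MultiTox-Fluor reagent. Human lymphoblastoid line exposed 16 h; Hill-fitted AC50, with DMSO as 0% and 15 uM tetraoctylammonium bromide as 100%.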
# [15] = Cell Viability - LYMP2-003 (AID 965);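 also: potency is read from the fitted curve at half-maximal effect; cells exposed to compounds for 24 h before reading; nearly all actives have a fitted effect of over 50% in size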
# Method in brief: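 Human lymphoblastoid cells (2500/well) were pre-incubated 5 hr at 37 C, then exposed to compounds over a concentration range for 24 hr at 37 C. Intracellular ATP was read by CellTiter-Glo luminescence; AC50 came from Hill-equation fits.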
# [16] = Cell Viability - LYMP2-004 (AID 966); conditions: LYMP2-004 lymphoblastoid cell viability, qHTS; activity change, negative = cytotoxicity: at 92.2 µM (top of the series); also: potency is read from the fitted curve at half-maximal effect; nearly all actives have a fitted effect of over 65% in size
# Method in brief: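 Lymphoblastoid LYMP2-004 cells, 2500 per well, were preincubated for 5 hr and then treated with compound for 24 h at 37 C in complete medium. Viability was read as cellular ATP by CellTiter-Glo luminescence, and AC50 values were taken from Hill fits to concentration-response data.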
# [17] = Cell Viability - LYMP2-007 (AID 979); conditions: LYMP2-007 lymphoblastoid cell viability; activity change, negative = cytotoxicity: at 92.2 µM (top of the series);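 also: potency is read from the fitted curve at half-maximal effect; cells exposed to compound for 24 h before reading; nearly all actives have a fitted effect of over 60% in size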
# Method in brief: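 Human lymphoblastoid LYMP2-007 cells (2500/well) preincubated 5 h at 37 C, then treated 24 h at 37 C in complete medium. Viability by CellTiter-Glo ATP luminescence after 30 min at room temperature; AC50 from Hill fits.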
# [18] = Cell Viability - LYMP2-010 (AID 981); also: potency is read from the fitted curve at half-maximal effect; nearly all actives have a fitted effect of over 55% in size
# Method in brief: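 Human lymphoblastoid LYMP2-010 cells (2500/well) treated 24 h at 37 C in complete medium; viability read as intracellular ATP by CellTiter-Glo luminescence. AC50 from Hill fits of concentration-response data; tetraoctylammonium bromide positive control.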
# Tags tell the direction and shape of the fitted curve or compound fluorescence and quenching.
# Chain of UniProt P08482 (P08482 whole entry, looked up): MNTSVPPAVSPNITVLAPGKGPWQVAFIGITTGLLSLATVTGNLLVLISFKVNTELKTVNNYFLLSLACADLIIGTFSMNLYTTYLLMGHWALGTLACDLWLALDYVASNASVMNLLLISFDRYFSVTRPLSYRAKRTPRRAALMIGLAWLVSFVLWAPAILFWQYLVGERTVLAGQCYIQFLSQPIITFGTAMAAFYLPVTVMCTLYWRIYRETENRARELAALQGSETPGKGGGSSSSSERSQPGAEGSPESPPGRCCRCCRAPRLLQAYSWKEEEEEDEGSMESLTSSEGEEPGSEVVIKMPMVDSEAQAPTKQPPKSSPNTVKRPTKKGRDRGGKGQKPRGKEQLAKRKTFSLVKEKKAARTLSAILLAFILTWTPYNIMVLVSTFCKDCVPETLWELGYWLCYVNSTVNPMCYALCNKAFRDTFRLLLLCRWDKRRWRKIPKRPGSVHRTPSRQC
# Chain of UniProt P10635 (P10635 whole entry, looked up): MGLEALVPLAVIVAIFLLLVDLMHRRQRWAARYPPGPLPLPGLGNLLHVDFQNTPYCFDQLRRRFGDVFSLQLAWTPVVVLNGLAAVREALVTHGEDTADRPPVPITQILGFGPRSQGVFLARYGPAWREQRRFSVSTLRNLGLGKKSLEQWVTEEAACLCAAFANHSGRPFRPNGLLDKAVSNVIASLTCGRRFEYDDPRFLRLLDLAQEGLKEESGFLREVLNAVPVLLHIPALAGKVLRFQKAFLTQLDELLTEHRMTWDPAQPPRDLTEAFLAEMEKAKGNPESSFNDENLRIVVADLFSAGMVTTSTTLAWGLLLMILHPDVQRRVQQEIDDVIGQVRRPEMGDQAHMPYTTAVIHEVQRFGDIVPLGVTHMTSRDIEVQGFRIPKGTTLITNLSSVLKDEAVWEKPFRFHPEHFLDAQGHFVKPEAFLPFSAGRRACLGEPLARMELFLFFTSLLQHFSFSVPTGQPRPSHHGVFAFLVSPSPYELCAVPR
# Chain of UniProt P33261 (P33261 whole entry, looked up): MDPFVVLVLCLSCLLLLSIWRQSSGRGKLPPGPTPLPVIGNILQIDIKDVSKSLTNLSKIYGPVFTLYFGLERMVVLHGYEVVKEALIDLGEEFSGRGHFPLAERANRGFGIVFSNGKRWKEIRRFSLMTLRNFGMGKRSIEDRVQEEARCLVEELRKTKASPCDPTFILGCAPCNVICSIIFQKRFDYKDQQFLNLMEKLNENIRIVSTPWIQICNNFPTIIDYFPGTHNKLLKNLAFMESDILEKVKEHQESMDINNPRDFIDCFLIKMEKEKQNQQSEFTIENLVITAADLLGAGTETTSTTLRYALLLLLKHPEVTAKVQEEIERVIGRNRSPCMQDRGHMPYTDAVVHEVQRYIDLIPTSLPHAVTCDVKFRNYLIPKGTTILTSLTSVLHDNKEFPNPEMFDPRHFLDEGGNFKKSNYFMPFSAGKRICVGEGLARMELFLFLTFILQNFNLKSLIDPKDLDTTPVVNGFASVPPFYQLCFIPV
# Chain of UniProt P08684 (P08684 whole entry, looked up): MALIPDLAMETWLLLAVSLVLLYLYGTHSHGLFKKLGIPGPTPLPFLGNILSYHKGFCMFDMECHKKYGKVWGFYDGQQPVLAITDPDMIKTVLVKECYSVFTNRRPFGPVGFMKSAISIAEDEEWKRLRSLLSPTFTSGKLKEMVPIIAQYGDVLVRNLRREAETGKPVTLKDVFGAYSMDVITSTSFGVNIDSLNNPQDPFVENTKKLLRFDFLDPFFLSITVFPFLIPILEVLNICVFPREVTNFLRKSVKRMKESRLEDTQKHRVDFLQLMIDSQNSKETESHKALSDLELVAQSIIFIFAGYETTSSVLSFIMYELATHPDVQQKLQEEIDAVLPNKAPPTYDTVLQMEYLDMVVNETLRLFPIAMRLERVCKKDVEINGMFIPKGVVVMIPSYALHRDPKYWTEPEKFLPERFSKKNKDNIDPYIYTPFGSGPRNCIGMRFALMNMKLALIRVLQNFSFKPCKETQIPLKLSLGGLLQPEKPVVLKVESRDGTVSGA
# Chain of UniProt Q27686 (Q27686 2-499 E452W): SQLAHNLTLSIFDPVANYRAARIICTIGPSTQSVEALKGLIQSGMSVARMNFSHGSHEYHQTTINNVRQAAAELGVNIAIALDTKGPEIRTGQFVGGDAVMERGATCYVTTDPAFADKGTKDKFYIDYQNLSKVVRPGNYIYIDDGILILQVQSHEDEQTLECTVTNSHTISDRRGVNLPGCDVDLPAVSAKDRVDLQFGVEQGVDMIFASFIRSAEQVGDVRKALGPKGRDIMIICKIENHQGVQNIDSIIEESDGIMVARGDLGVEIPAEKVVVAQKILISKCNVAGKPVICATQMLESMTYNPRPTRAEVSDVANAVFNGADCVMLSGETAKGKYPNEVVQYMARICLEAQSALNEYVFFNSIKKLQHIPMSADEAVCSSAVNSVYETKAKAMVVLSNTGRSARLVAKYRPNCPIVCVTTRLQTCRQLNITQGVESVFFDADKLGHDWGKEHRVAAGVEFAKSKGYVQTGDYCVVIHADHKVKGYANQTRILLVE
compound,measurement,setting,value
COc1ccc2c(c1O)-c1cccc3c1[C@H](C2)N(C)CC3,Potency,[1],inactive
same,Potency,[2],inactive
same,Potency,[3],"inconclusive: 7.94 µM [inhibitor, full curve, poor fit]"
same,Potency,[4],inactive
same,"activity change, negative = inhibition",[5],inconclusive: -10.6% [phenotype inactive]
same,Potency,[6],"inconclusive: 28.2 µM [inhibitor, partial curve, poor fit]"
same,Potency,[7],inactive
O=c1cccc2n1CC1CC2CN2CCCC[C@H]12 (stereo partly specified),Potency,[8],inactive
O=CN1C[C@H]2C[C@@H](C1)c1cccc(=O)n1C2,Potency,[9],inactive
CC(=O)CC1CCCCN1 (stereo unspecified),Potency,[8],inactive
CN1CCc2cc3c(cc2[C@@H]1[C@@H]1OC(=O)c2c1ccc1c2OCO1)OCO3,Potency,[9],inactive
CN1CCCC2(CCN(C(=O)c3ccncc3)CC2)C1,Potency,[9],"inconclusive: 7.94 µM [inhibitor, partial curve]"
CC(C)(O)[C@H]1[C@H]2OC(=O)[C@@H]1[C@]1(O)C[C@H]3O[C@]34C(=O)O[C@H]2[C@]14C (tested in a mixture with another compound),Potency,[2],"inconclusive: 1 µM [inhibitor, partial curve, poor fit]"
same,Potency,[4],"inconclusive: 15.8 µM [inhibitor, single point]"
same,Potency,[6],"inconclusive: 0.224 µM [inhibitor, partial curve, poor fit]"
O=[N+]([O-])c1ccc(O[C@H]2O[C@@H](CO)[C@@H](O)[C@@H](O)[C@@H]2F)c([N+](=O)[O-])c1,Potency,[2],"inconclusive: 0.501 µM [inhibitor, full curve, poor fit]"
same,Potency,[4],"inconclusive: 6.31 µM [inhibitor, full curve, poor fit]"
same,Potency,[6],"inconclusive: 0.0316 µM [inhibitor, full curve, poor fit]"
C[C@]12CC[C@H](O)C[C@@H]1CC[C@H]1[C@H]2CC[C@]2(C)C(=O)CC[C@@H]12,Potency,[2],"inconclusive: 1.58 µM [inhibitor, partial curve, poor fit] [setting not given]"
same,Potency,[3],"inconclusive: 2.51 µM [inhibitor, partial curve, poor fit] and inconclusive: 7.94 µM [inhibitor, partial curve, poor fit]"
same,"activity change, negative = inhibition",[5],inconclusive: -17.4% [phenotype inactive]
C[C@]12CC[C@H](O)CC1=CC[C@@H]1[C@H]2CC[C@]2(C)C(=O)CC[C@H]12,Potency,[2],inactive
same,Potency,[4],inactive
same,"activity change, negative = inhibition",[5],inconclusive: -21.3% [phenotype inactive]
same,Potency,[6],"inconclusive: 0.0562 µM [inhibitor, full curve, poor fit]"
C[Se]C[C@@H](N)C(=O)O,Potency,[8],"inconclusive: 1.26 µM [inhibitor, full curve, poor fit]"
same,Potency,[2],"inconclusive: 5.01 µM [activator, single point]"
same,"activity change, negative = inhibition",[5],inconclusive: -5.03% [phenotype inactive]
same,Potency,[6],inactive
same,Potency,[7],inactive
CC(=O)O[C@H]1CC[C@@]2(C)[C@@H](CC[C@H]3[C@H]2CC(=O)[C@@]2(C)[C@@H]3C[C@H]3CC(C)=CC(=O)[C@H]32)C1,Potency,[1],active: 2 µM
CCCCCCCCCC[Si](C)(C)CCC(=O)N[C@@H](Cc1ccc(C)cc1)c1ccccc1,Potency,[2],"inconclusive: 8.91 µM [inhibitor, single point]"
same,Potency,[4],"inconclusive: 7.94 µM [inhibitor, partial curve]"
same,Potency,[6],"inconclusive: 15.8 µM [inhibitor, partial curve, poor fit]"
Cc1[nH]cnc1CCN,Potency,[8],inactive
Clc1ccc(C(c2ccc(Cl)cc2)n2cc[n+](C[C@@H](OCc3ccc(Cl)cc3Cl)c3ccc(Cl)cc3Cl)c2)cc1,Potency,[2],"inconclusive: 11.2 µM [side channel, falling, partial curve] [setting not given]"
same,Potency,[10],"inconclusive: 25.1 µM [cytotoxic, side channel]"
same,Potency,[4],"inconclusive: 25.1 µM [inhibitor, single point] [setting not given]"
same,Potency,[6],"inconclusive: 1.58 µM [inhibitor, full curve, poor fit]"
same,Potency,[7],active: 14.1 µM
CC[C@@H]1CN2CC[C@@H]1C[C@H]2[C@H](O)c1ccnc2ccc(OC)cc12,Potency,[1],"inconclusive: 0.398 µM [activator, full curve, poor fit]"
CC(C)C(N)C(=O)OCCOCn1cnc2c(=O)[nH]c(N)nc21 (stereo unspecified),Potency,[11],"inconclusive: 12.6 µM [activator, single point]"
CN1[C@@H](CC(=O)c2ccccc2)CCC[C@@H]1C[C@@H](O)c1ccccc1,Potency,[12],"inconclusive: 12.6 µM [inhibitor, partial curve]"
COc1ccc2c(c1)CCC1C2CC[C@]2(C)[C@H](NCCCCCCN3C(=O)C=CC3=O)CC[C@@H]12 (stereo partly specified),Potency,[5],active: 2 µM
CC[C@@H]1CN2CCc3cc(OC)c(OC)cc3[C@H]2C[C@@H]1C[C@@H]1NCCc2cc(OC)c(OC)cc21,Potency,[5],active: 0.0631 µM
O=C(O)[C@H]1[C@H](C(=O)O)[C@H]2CC[C@@H]1O2,"activity change, negative = inhibition",[13],inactive: 1.06%
C=CC(=O)OCCCC,Potency,[14],"inconclusive: 63.1 µM [falling, partial curve, poor fit]"
Brc1ccc(-c2ccccc2)cc1,Potency,[15],"inconclusive: 7.94 µM [cytotoxic, full curve, poor fit]"
Cc1ccc(C)cc1,Potency,[16],"inconclusive: 50.1 µM [cytotoxic, single point]"
CC(C)(c1cc(Br)c(OCC(Br)CBr)c(Br)c1)c1cc(Br)c(OCC(Br)CBr)c(Br)c1 (stereo unspecified),Potency,[17],"inconclusive: 50.1 µM [cytotoxic, partial curve, poor fit]"
Oc1c(Cl)ccc(Cl)c1Cl,Potency,[18],"inconclusive: 39.8 µM [cytotoxic, single point]"
